# Measured values as given in paper PMC4336329 (PLoS ONE, 2015).
# Among all 310,000 compounds or so, about 14,000 (4.5%) showed an effect of 50% or more. The effect is printed as a negative number. Some of the results follow.
# Biological target: human ether-à-go-go-related gene (hERG) potassium channel (human, UniProt Q12809)
# Assay: primary screen, population patch clamp on CHO cells stably expressing hERG
# 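Note: peak tail current of the secondary pulse compared with the same well before compound.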
# Chain of human ether-à-go-go-related gene (hERG) potassium channel (Q12809 whole entry, looked up): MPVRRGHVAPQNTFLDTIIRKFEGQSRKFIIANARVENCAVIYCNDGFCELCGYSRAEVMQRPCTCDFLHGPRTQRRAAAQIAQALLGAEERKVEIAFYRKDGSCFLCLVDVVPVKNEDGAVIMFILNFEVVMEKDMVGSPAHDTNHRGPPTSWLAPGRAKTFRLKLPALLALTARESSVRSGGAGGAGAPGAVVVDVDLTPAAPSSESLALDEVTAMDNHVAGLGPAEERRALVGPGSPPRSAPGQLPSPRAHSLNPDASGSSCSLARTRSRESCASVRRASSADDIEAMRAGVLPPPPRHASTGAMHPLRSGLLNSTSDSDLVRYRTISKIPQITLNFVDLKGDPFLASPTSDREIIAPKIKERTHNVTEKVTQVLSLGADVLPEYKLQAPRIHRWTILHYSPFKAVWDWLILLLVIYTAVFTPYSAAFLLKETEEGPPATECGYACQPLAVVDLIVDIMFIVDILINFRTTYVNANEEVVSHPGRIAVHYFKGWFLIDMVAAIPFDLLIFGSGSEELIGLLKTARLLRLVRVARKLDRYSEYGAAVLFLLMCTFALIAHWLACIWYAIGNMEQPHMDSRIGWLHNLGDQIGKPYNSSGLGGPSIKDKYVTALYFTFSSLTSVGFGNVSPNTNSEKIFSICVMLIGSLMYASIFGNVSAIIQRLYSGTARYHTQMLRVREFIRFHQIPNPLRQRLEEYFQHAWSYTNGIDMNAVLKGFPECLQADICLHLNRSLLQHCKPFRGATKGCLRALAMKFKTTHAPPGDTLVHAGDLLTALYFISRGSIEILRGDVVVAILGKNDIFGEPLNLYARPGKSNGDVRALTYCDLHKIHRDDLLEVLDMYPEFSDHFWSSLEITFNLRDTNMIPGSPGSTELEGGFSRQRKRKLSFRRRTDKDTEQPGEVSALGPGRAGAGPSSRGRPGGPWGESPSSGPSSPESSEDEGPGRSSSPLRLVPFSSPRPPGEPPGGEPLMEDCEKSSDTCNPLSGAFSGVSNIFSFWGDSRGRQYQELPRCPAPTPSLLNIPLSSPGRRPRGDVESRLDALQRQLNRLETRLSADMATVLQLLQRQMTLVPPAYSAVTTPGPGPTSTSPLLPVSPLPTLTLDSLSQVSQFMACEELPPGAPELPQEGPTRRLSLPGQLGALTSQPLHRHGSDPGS
row,SMILES,"hERG current change (%, negative = inhibition) at 10uM [%]"
1,CCCNC(=O)C1CN(S(=O)(=O)c2ccccc2)CCN1S(=O)(=O)c1ccccc1 (stereo not drawn),-7.34
2,Cc1cc(C)c(C#N)c(SCC(=O)N2CCCCC2)n1,17
3,CC1CN(CC(=O)Nc2ccc(Br)cn2)CC(C)O1 (stereo not drawn),17.9
4,O=[N+]([O-])c1ccc(-n2cccc2/C=N/Nc2nc(N3CCCCC3)nc(N3CCCCC3)n2)cc1,15.1
5,CCOC(=O)C1CCCN(CC(=O)Nc2nc(-c3ccccc3)cs2)C1 (stereo not drawn),-27.3
6,CN(Cc1ccccc1)C1CCCN(C(=O)c2ccc(Cl)s2)C1 (stereo not drawn),-30.4
7,O=C(c1cc(-c2ccc(Cl)cc2Cl)on1)N1CCCCCC1,0.184
8,Nc1cc(=O)[nH]c(SCC(=O)N2CCCCC2)n1,40.8
9,CC(C)N1CCC(N2CCN(Cc3cc(F)ccc3-n3cccn3)CC2CCO)CC1 (stereo not drawn),-8.1
10,COCCN(CC(=O)Nc1cccc(C)c1C)C(=O)c1cc2c(s1)CCC2,-3.94
11,CC(/C=C/c1ccccc1)=N/O,-0.00622
12,CC(C)c1nnc(NC(=O)CCC(=O)Nc2ccccc2)s1,3.52
13,CCOc1ccc(CCNC(=O)CS(=O)Cc2nc(-c3ccccc3Cl)oc2C)cc1OCC (stereo not drawn),-10.7
14,CC(=O)CCc1c(C)nc2ccc(C(=O)O)cc2c1Cl,23.9
15,CCc1ccc(-c2csc(NC(=O)Oc3ccccc3)n2)cc1,0.389
16,S=C(Nc1ccc(Cl)cc1)NN1CCOCC1,-0.582
17,Cc1ccc(S(=O)(=O)N2CCCCC2)cc1NC(=O)Cc1c[nH]c2ccccc12,-14.4
18,O=C(CCCc1ccccc1)NCCc1ccc(F)cc1,4.27
19,Cc1sc2nc(CC(=O)NN)[nH]c(=O)c2c1C,4.87
20,CC(C)COc1ccc(C(=O)Nc2cc(S(=O)(=O)N3CCOCC3)ccc2N2CCCC2)cc1,-0.0415
21,O=C(C[n+]1ccccc1)N/N=C/c1ccc(O)cc1.[Cl-],21.6
22,O=C(NNC(=O)c1ccccc1Cl)c1cccs1,11.6

row,SMILES,"hERG current change (%, negative = inhibition) at 10uM [%]"
1,Cc1cc(C)n(S(=O)(=O)Cc2ccccc2)n1,2.27
2,Cc1csc(NC(=O)c2cc(-c3ccncc3)nc3ccccc23)n1,-13.9
3,COc1ccc(NC(=O)c2cn(CCC#N)nc2-c2ccccc2)cc1,-7.59
4,CC(C)(C)OC(=O)N1CCN(C(=O)c2[nH]cnc2C(=O)N[C@@H](Cc2ccccc2)C(=O)OCc2ccccc2)CC1,-6.94
5,COc1cc(CCC(=O)NCc2ccc(S(N)(=O)=O)cc2)cc(OC)c1OC,21.1
6,O=S(=O)(c1ccccc1F)N1CCN(CCc2ccccc2)CC1,-5.81
7,CC(=O)c1ccc(NC(=O)c2ccc3c(=O)n4c(nc3c2)CCCCC4)cc1,-5.23
8,Cc1nc(CN2CCC(c3ccccc3)CC2)cc(=O)[nH]1,19.5
9,CCOC(=O)N1CCC(N(CCN(C)C)C(=S)Nc2ccccc2C)CC1,3.33
10,CCOC(=O)c1c(C)nc2sc3c(=O)n(-c4ccc(OC)cc4)cnc3c2c1-c1ccc(OC)cc1,5.33
11,O=C(CSc1nc2ccccc2[nH]1)N1CCN(c2ccccc2)CC1,-0.235
12,CCOP(=O)(OCC)c1nc(Cc2ccccc2)oc1NCc1ccccc1,2.15
13,O=C(NCCc1ccccc1)C(=O)N/N=C/c1ccccc1C(F)(F)F,6.29
14,Cc1cccc(CSc2nnc3c(n2)[nH]c2ccccc23)c1,13.6
15,C/C=C/CC1(CC)C(=O)NC(=S)NC1=O,25.1
16,CCOC(=O)c1ccc(NC(=O)Nc2ccc(OC)c(OC)c2)cc1,1.51
17,CC(C)[C@H](NC(=O)OCc1ccccc1)C(=O)NCc1ccccc1,3.55
18,O=C(NCCO)C(c1ccccc1)c1ccccc1,-5.02
19,Cc1ccc(C)c(NC(=O)c2cc([N+](=O)[O-])cc([N+](=O)[O-])c2)c1,9.62
20,CC(=O)OCC1=C(C(=O)O)N2C(=O)C(NC(=O)C(C)Cn3cc(Cl)cn3)C2SC1 (stereo not drawn),23.1
21,COCCNC(=O)c1ccc(N2CC3CC(C2)c2cccc(=O)n2C3)c(NC(=O)c2c(F)cccc2F)c1 (stereo not drawn),7
22,COc1cccc(NC(=O)N2CCCC(C(=O)Nc3ccccc3OC)C2)c1 (stereo not drawn),-28

row,SMILES,"hERG current change (%, negative = inhibition) at 10uM [%]"
1,COc1ccc(CCC(C(O)C(F)(F)F)S(=O)c2ccccc2)cc1 (stereo not drawn),4.1
2,Cc1ccc(C(=O)Nc2ccccc2N2CCCCC2)o1,2.4
3,CC1Cc2ccccc2N1C(=O)CSc1nc2c(c(=O)n(C)c(=O)n2C)n1Cc1ccc(F)cc1 (stereo not drawn),-3.14
4,COc1ccc(/C=C/C(=O)Nc2cc(C(F)(F)F)ccc2Cl)cc1,6.51
5,Cc1cccc(NS(=O)(=O)c2ccc(C(=O)NCC(c3ccco3)N3CCCCC3)cc2)c1C (stereo not drawn),-55.6
6,Cc1noc(C)c1COc1ccc(C(=O)OCC(=O)NC2CCCCC2C)cc1 (stereo not drawn),-1.57
7,O=[N+]([O-])c1ccccc1-c1ccc(CN2CCN(c3ccccc3)CC2)o1,-9.96
8,Cc1nc2cc(N3CCN(C)CC3)c(NC(=O)Cc3ccccc3)cc2c(=O)n1Cc1ccccc1,-7.09
9,Cn1c(C(=O)N2CCN(C(=O)c3ccco3)CC2)cc2c(=O)n3ccccc3nc21,-14.5
10,O=C(OCC(=O)N1CCc2ccccc21)c1cccc(S(=O)(=O)N2CCCc3ccccc32)c1,4.13
11,CCN(CCCNC(=O)C1CCC(=O)N1C1CCCC1)c1cccc(C)c1 (stereo not drawn),-2.31
12,C=CCn1c(=O)n(CCC#N)c(=O)n(CCC#N)c1=O,11.8
13,Cc1cc(S(=O)(=O)N2CCCC2)ccc1OCC(=O)Nc1ccccc1,21.2
14,CCCCCn1c(=O)c(C(=O)Nc2cc(C)ccn2)c(O)c2ccccc21,17.2
15,Cc1ccccc1OCC(=O)NN1CCN(C)CC1.Cl,1.07
16,Cc1ccc(-c2noc(CNS(=O)(=O)c3ccccc3)n2)cc1,13.8
17,CC/C(=N\NC(=O)C1CCCC1)c1cccc(Br)c1,13.2
18,CC1C(=O)Nc2ccccc2N1C(=O)c1ccc(Cl)cc1 (stereo not drawn),11.4
19,O=C(/C=C/c1ccc(Cl)cc1)NC(=S)NN1CCCCC1c1cccnc1 (stereo not drawn),-67
20,COc1ccccc1CN1CCNC(=O)C1CC(=O)N(C)Cc1ccon1 (stereo not drawn),5.2
21,CCCC1=C(C(=O)OCC)C(c2cc(Cl)cc(OC)c2OCc2ccccc2)NC(=O)N1 (stereo not drawn),4.73
22,CCC(=O)Nc1cccc(NC(=O)c2cc3ccccc3o2)c1,-8.5

row,SMILES,"hERG current change (%, negative = inhibition) at 10uM [%]"
1,COc1cccc(OCCCn2cc(/C=C3/C(=N)N4C=C(C)SC4=NC3=O)c3ccccc32)c1,16.7
2,Cc1cccc(CC(=O)Nc2cccnc2)c1,7.08
3,O=C(Cn1c(=O)oc2cc(S(=O)(=O)N3CCCC3)ccc21)N1CCc2ccccc2C1,-32.3
4,O=C(Nc1nc(-c2ccccc2)cs1)c1ccc2c(=O)n3c(nc2c1)CCCCC3,-23.8
5,CCOc1cccc2cc(C(=O)NCc3ccc(F)cc3)c(=N)oc12,6.99
6,Cc1cc(Cl)ccc1NC(=O)NC1CCN(S(=O)(=O)c2ccc(F)cc2)CC1,-5.62
7,O=C(O)c1ccc(N=Nc2c(-c3ccccc3)[nH]oc2=O)cc1,31.9
8,Cc1cc(C)c(S(=O)(=O)N2CCN(C(=O)C(C)Cn3nc(C)nc3C)CC2)c(C)c1 (stereo not drawn),8.39
9,CCOC(=O)c1ccccc1NC(=O)C1CC(=O)N(c2ccccc2)C1 (stereo not drawn),-3.37
10,Cc1ccc(C)c(N2C(=O)CN=C2Nc2ccccc2Cl)c1.Cl,3.8
11,O=C1C=C(NCc2ccco2)CCC1,16.7
12,CCOc1ccc(-c2cc(CCCC(=O)NCc3cccnc3)no2)cc1,-35
13,CN(C)S(=O)(=O)c1cc(NC(=O)CN2CCN(c3ccccc3)CC2)ccc1Cl,-17.1
14,O=C(NCC1CCCO1)c1cccc(NC(=O)c2ccc(Br)cc2)c1 (stereo not drawn),-0.865
15,COc1cc(/C=N/NC(=O)CC2(C)OCCO2)cc(Br)c1O,6.27
16,O=C(CCNC(=O)c1ccc(Br)cc1)Nc1ccc(S(=O)(=O)Nc2ncccn2)cc1,5.02
17,Cc1ccc(C(=O)O)cc1-c1ccc(C=C2C(=O)c3ccccc3C2=O)o1,1.32
18,COc1ccccc1N1C(=O)CC(N2CCN(c3ccc(F)cc3)CC2)C1=O (stereo not drawn),-1.99
19,CCn1c(SCC(=O)NC(C)(C)C)nnc1-c1ccoc1C,-18.5
20,COc1ccc(-c2cc(-c3nnc(COC(=O)C4CC4C)o3)c3ccccc3n2)cc1OC (stereo not drawn),-10.3
21,COc1ccc(C(N)c2nccc3cc(OC)c(OC)cc23)cc1OC (stereo not drawn),14
